What was measured:
Assay in all cases: ELISA
[1] = target: T1, human OX40 ECD-His (human, UniProt P43489 29-216)
T1 construct: also called human OX40-his; huOX40
T1 sequence: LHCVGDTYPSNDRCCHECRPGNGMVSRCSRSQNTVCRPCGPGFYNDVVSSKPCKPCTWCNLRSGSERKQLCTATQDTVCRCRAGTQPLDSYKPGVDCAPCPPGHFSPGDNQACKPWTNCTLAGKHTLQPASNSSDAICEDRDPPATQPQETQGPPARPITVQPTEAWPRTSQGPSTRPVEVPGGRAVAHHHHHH

[2] = target: T2, human CD40 ECD-mIgG2a (human)
T2 construct: also called huCD40; TNFRSF5(CD40)

[3] = target: T3, TNFRSF1A(CD120a) (UniProt P19438 30-211, limits assumed)
T3 construct: Bought protein
T3 sequence (looked up): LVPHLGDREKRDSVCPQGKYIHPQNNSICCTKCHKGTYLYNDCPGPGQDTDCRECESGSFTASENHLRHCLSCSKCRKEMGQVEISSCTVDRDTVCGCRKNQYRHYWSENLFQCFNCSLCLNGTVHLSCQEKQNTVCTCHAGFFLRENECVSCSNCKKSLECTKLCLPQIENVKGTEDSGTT

[4] = target: T4, TNFRSF1B(CD120b) (UniProt P20333 23-257)
T4 construct: Bought protein
T4 sequence (looked up): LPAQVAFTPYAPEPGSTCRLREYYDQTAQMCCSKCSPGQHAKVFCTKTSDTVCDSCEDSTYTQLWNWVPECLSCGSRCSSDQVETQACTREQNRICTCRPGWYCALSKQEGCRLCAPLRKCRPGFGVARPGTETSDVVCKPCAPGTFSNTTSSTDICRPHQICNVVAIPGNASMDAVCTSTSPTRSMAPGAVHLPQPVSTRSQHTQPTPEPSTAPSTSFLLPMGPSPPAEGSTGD

[5] = target: T5, TNFRSF7(CD27) (UniProt P26842 20-192, limits assumed)
T5 construct: Bought protein

[6] = target: T6, TNFRSF18(GITR) (UniProt Q9Y5U5 26-161, limits assumed)
T6 construct: Bought protein
T6 sequence (looked up): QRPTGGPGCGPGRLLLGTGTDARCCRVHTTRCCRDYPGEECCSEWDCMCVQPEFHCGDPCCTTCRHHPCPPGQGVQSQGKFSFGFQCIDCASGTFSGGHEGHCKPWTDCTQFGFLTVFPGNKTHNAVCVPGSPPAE

T5 sequence (P26842 20-192 limits assumed): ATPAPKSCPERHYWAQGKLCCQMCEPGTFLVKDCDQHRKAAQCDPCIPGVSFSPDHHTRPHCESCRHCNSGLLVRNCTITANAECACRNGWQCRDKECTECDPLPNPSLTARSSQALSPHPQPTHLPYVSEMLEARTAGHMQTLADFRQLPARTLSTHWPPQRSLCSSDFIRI

binding result [1]: no binding (tested: coated at 10 µg/ml) | binding result [2]: no binding (tested: coated at 10 µg/ml) | binding result [3]: no binding (tested: coated at 10 µg/ml) | binding result [4]: no binding (tested: coated at 10 µg/ml) | binding result [5]: no binding (tested: coated at 10 µg/ml) | binding result [6]: no binding (tested: coated at 10 µg/ml)
B1: BGA-5623 fused with wild type IgG1 Fc (Fc fusion)
chain: EVQLLESGGGLVQPGGSLRLSCAASGFTVSAEDVGWVRQAPGKGLEWVSAILDKGGSTYYAESVKGRFTISRDNAKNTLYLQMSSLRAEDTAVYYCARIVYHAGGGVTFDTRGQGTQVTVSS[omitted - human IgG1 Fc with changes]

Reference: patent US20240209113A1 (BEIGENE SWITZERLAND, published 2024)
